Reference: article PMC6136799, “The Npa1p complex chaperones the assembly of the earliest eukaryotic large ribosomal subunit precursor” (PLoS Genetics, 2018)
Results are given in words; binding and its absence hold for the method and conditions named. For some of these results: Binding seen in cells or lysates may run through a third protein. Some binding calls cover weakened binding; strength is not graded here. For some of these results: Tags and fused reporters may be left off the sequences shown. One block for each binder: values may come before it.

How the values were obtained:
[1] = molecular target: T1, Npa2p-FPZ (S. cerevisiae) (UniProt P47108); assay: co-IP; tandem affinity purification of the FPZ-tagged bait from yeast extract (IgG sepharose, PreScission protease, anti-Flag beads, Flag peptide elution); buffers with 10 mM MgCl2 and 150 mM NaCl, 4°C; Coomassie staining, Western; also rrn3/RSA3-FPZ cells at 24°C or shifted to 37°C for 6 hours, and cells depleted of Npa1p or Npa2p where binding is kept
T1 sequence: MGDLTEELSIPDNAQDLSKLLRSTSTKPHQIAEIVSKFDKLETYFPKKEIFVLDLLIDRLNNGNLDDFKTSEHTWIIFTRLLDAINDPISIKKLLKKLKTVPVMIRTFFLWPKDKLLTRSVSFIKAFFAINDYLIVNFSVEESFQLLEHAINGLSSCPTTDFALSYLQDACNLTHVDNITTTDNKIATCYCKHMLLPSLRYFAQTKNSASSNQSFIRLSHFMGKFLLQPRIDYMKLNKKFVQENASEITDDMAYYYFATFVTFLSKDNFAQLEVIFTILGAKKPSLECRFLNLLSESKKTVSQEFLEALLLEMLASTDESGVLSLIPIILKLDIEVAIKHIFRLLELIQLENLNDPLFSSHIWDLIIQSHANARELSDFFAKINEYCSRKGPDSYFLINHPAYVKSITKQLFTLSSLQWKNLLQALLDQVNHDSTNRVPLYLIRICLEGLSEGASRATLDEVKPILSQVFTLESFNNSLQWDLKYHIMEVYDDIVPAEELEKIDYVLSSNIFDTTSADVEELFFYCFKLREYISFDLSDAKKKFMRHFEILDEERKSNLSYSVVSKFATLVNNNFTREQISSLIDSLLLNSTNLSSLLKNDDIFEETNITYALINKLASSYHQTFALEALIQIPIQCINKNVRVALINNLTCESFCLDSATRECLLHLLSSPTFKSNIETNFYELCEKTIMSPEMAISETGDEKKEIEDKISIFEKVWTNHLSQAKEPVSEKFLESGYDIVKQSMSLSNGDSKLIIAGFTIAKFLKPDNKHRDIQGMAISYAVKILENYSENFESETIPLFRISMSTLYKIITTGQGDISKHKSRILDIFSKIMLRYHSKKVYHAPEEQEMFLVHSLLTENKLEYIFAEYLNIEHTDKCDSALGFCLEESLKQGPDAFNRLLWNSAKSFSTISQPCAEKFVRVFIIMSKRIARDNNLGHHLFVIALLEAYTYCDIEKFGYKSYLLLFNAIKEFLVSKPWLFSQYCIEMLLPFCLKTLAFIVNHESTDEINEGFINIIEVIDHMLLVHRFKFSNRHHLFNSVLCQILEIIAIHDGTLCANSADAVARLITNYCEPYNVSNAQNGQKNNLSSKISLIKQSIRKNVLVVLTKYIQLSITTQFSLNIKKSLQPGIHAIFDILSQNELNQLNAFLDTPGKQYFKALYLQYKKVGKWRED

[2] = molecular target: T2, GST-Rsa3p (S. cerevisiae), Q05942; assay: condition: 2 μg of purified His-Dbp6p in 200 μl IP buffer; pull-down; 2 μg GST-tagged protein on glutathione magnetic beads, 2 μg His-Dbp6p in 200 μl IP buffer (50 mM Tris-HCl pH 8, 150 mM potassium chloride, 5 mM magnesium chloride, 0.2% Nonidet P-40), 1 h at 16°C; Western with anti-His; also after RNase A treatment; both purified; details: remark: other sources report otherwise
T2 chain: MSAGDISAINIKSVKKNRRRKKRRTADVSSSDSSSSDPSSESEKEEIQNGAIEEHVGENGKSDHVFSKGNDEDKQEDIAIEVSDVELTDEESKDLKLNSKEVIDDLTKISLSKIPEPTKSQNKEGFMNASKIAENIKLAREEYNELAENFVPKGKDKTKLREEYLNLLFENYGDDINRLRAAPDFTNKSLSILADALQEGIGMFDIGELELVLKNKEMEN

[3] = molecular target: T3, GST-Nop8p (S. cerevisiae) (UniProt Q08287); assay: as above
T3 sequence: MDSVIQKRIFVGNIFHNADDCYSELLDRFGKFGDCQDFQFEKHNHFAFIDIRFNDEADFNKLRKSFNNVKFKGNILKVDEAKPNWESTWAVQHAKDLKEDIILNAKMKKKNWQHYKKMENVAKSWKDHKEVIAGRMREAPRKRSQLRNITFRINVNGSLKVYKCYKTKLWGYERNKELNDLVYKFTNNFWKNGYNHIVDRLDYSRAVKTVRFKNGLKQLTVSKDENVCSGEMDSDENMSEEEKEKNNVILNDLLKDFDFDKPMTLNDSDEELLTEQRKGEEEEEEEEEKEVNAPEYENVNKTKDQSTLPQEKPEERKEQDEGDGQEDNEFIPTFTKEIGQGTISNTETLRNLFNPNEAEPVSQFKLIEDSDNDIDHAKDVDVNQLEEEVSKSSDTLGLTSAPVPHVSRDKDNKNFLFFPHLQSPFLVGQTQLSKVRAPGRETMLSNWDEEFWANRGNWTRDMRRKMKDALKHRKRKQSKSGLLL

GST-Npa2p = molecular target: T4, GST-Npa2p (S. cerevisiae, UniProt P47108 1-1174); assay: co-IP; purified GST-tagged versions of the complex proteins tested in pairs by immunoprecipitation with specific antibodies; conditions not given; both purified
T4 construct: Npa2p, S. cerevisiae; NPA2 ORF inserted into XhoI-digested pGEX-6P1 (plasmid pRC58); source: E. coli Rosetta λDE3, purified (Glutathione Sepharose 4 FF)
T4 sequence (looked up): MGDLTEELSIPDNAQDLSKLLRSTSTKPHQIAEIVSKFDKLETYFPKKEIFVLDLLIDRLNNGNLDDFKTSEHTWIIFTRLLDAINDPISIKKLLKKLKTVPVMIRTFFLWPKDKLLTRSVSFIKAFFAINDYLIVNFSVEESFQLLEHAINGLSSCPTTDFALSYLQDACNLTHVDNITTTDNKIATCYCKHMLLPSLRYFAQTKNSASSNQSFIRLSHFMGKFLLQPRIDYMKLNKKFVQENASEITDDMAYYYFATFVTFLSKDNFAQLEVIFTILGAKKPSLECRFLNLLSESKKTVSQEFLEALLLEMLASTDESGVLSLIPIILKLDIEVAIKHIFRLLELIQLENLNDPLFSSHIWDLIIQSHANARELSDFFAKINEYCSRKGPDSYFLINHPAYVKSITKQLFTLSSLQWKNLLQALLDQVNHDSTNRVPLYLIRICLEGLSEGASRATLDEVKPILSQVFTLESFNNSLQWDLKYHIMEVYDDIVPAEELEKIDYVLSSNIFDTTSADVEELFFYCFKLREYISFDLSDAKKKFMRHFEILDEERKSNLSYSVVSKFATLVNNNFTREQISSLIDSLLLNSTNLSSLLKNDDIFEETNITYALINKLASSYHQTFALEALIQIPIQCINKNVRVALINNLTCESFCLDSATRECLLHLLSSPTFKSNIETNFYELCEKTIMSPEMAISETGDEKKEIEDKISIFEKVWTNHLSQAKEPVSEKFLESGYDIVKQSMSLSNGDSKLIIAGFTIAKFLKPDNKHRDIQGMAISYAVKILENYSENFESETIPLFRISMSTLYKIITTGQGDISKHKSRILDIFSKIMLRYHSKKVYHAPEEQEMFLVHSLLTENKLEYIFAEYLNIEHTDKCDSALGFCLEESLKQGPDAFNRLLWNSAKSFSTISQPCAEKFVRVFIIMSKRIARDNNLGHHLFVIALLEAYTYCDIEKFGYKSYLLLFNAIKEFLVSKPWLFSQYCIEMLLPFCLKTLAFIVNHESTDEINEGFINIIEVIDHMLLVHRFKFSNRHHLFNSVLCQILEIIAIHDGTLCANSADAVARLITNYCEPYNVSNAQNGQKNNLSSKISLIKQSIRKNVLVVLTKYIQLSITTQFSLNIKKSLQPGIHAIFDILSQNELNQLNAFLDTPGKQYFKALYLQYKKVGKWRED

binding [1]: binds
B1: Dbp6p (protein, UniProt P53734 1-629)
chain: MFASRFDPSQLTAPAASAPEGIVGTTPPAIVPLKRQATESDNEEYGSHQDSDESSNSSSEEDEDRMQVDYGASEEDSSEVEEEESKPSTHSTVLSRFKQTVSLQERLGASDIAESKEDEGIEDEAASTHQLKQIPQPEFVKNPMNLNTNSLQFKSTGWLNTEKIYYDNSLIKPFSDYANELEAKLLQNICKNFSTNTFPIQSIILDSILPVLNFTLNVSKRNFTRRIGDILVNAATGSGKTLAYSIPIVQTLFKRQINRLRCIIIVPTKLLINQVYTTLTKLTQGTSLIVSIAKLENSLKDEHKKLSNLEPDILITTPGRLVDHLNMKSINLKNLKFLIIDEADRLLNQSFQGWCPKLMSHLKTDKLDTLPGNVIKMIFSATLTTNTEKLNGLNLYKPKLFLKQTDKLYQLPNKLNEFNINIPTAKSVYKPLILLYSICQFMAHSPIAAKILIFVKSNESSIRLSKLLQLICESRSQSSVLKNLQNLAVSINSVNSNNSKAENKKIVANFSHHSESAGITILITTDIMSRGIDINDITQVINYDPPMSSQQYVHRVGRTARANELGSAYNLLVGRGERTFFDDLNKDLDRDGKSVQPLELDFTLLESDSELYTSSLESLKNYHNNTAQA

binding [2]: no binding
B2: His-Dbp6p, P53734 1-629 (protein)
chain: MFASRFDPSQLTAPAASAPEGIVGTTPPAIVPLKRQATESDNEEYGSHQDSDESSNSSSEEDEDRMQVDYGASEEDSSEVEEEESKPSTHSTVLSRFKQTVSLQERLGASDIAESKEDEGIEDEAASTHQLKQIPQPEFVKNPMNLNTNSLQFKSTGWLNTEKIYYDNSLIKPFSDYANELEAKLLQNICKNFSTNTFPIQSIILDSILPVLNFTLNVSKRNFTRRIGDILVNAATGSGKTLAYSIPIVQTLFKRQINRLRCIIIVPTKLLINQVYTTLTKLTQGTSLIVSIAKLENSLKDEHKKLSNLEPDILITTPGRLVDHLNMKSINLKNLKFLIIDEADRLLNQSFQGWCPKLMSHLKTDKLDTLPGNVIKMIFSATLTTNTEKLNGLNLYKPKLFLKQTDKLYQLPNKLNEFNINIPTAKSVYKPLILLYSICQFMAHSPIAAKILIFVKSNESSIRLSKLLQLICESRSQSSVLKNLQNLAVSINSVNSNNSKAENKKIVANFSHHSESAGITILITTDIMSRGIDINDITQVINYDPPMSSQQYVHRVGRTARANELGSAYNLLVGRGERTFFDDLNKDLDRDGKSVQPLELDFTLLESDSELYTSSLESLKNYHNNTAQA

binding [3]: no binding
B3: His-Dbp6p (natural protein, S. cerevisiae, UniProt P53734 1-629, looked up)
chain: MFASRFDPSQLTAPAASAPEGIVGTTPPAIVPLKRQATESDNEEYGSHQDSDESSNSSSEEDEDRMQVDYGASEEDSSEVEEEESKPSTHSTVLSRFKQTVSLQERLGASDIAESKEDEGIEDEAASTHQLKQIPQPEFVKNPMNLNTNSLQFKSTGWLNTEKIYYDNSLIKPFSDYANELEAKLLQNICKNFSTNTFPIQSIILDSILPVLNFTLNVSKRNFTRRIGDILVNAATGSGKTLAYSIPIVQTLFKRQINRLRCIIIVPTKLLINQVYTTLTKLTQGTSLIVSIAKLENSLKDEHKKLSNLEPDILITTPGRLVDHLNMKSINLKNLKFLIIDEADRLLNQSFQGWCPKLMSHLKTDKLDTLPGNVIKMIFSATLTTNTEKLNGLNLYKPKLFLKQTDKLYQLPNKLNEFNINIPTAKSVYKPLILLYSICQFMAHSPIAAKILIFVKSNESSIRLSKLLQLICESRSQSSVLKNLQNLAVSINSVNSNNSKAENKKIVANFSHHSESAGITILITTDIMSRGIDINDITQVINYDPPMSSQQYVHRVGRTARANELGSAYNLLVGRGERTFFDDLNKDLDRDGKSVQPLELDFTLLESDSELYTSSLESLKNYHNNTAQA
notes: Dbp6p, S. cerevisiae; DBP6 ORF cloned into a modified pET-15b (plasmid pET-DBP6); also called His-tagged Dbp6p; source: E. coli Rosetta λDE3, purified (HisTrap FF, Superdex 200)

binding (GST-Npa2p): no binding
B4: GST-Nop8p (protein, UniProt Q08287 1-484)
chain: MDSVIQKRIFVGNIFHNADDCYSELLDRFGKFGDCQDFQFEKHNHFAFIDIRFNDEADFNKLRKSFNNVKFKGNILKVDEAKPNWESTWAVQHAKDLKEDIILNAKMKKKNWQHYKKMENVAKSWKDHKEVIAGRMREAPRKRSQLRNITFRINVNGSLKVYKCYKTKLWGYERNKELNDLVYKFTNNFWKNGYNHIVDRLDYSRAVKTVRFKNGLKQLTVSKDENVCSGEMDSDENMSEEEKEKNNVILNDLLKDFDFDKPMTLNDSDEELLTEQRKGEEEEEEEEEKEVNAPEYENVNKTKDQSTLPQEKPEERKEQDEGDGQEDNEFIPTFTKEIGQGTISNTETLRNLFNPNEAEPVSQFKLIEDSDNDIDHAKDVDVNQLEEEVSKSSDTLGLTSAPVPHVSRDKDNKNFLFFPHLQSPFLVGQTQLSKVRAPGRETMLSNWDEEFWANRGNWTRDMRRKMKDALKHRKRKQSKSGLLL
